# Test results taken from the supplement of paper PMC8728848.
# Some of the results follow.
# B1: Eosinophil cationic protein (ECP) (Homo sapiens), P12724 (protein)
# chain: MVPKLFTSQICLLLLLGLMGVEGSLHARPPQFTRAQWFAIQHISLNPPRCTIAMRAINNYRWRCKNQNTFLRTTFANVVNVCGNQSIRCPHNRTLNNCHRSRFRVPLLHCDLINPGAQNISNCTYADRPGRRFYVVACDNRDPRDSPRYPVVPVHLDTTI
# What was measured:
# Assay in all cases: glycan array binding signal (z-score within array); higher = stronger binding
# Conditions in all cases: glycan notation: IUPAC condensed, linker removed
# [1] = target: Gal(b1-3)GlcNAc(a1-6)Gal(b1-4)GlcNAc
# Summary of the method: (§1)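 Columns mapping to the same glycan were averaged after glycan names were converted to IUPAC-condensed notation. The data come from 3228 arrays in the Consortium for Functional Glycomics database, limited to those with an available protein sequence. Binding is reported as a within-array Z-score averaged across arrays of one protein sequence and across linkers.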
# [2] = target: Gal(b1-3)GlcNAc(b1-2)Man(a1-3)[Gal(b1-3)GlcNAc(b1-2)Man(a1-6)]Man(b1-4)GlcNAc(b1-4)GlcNAc
# Summary of the method: as §1
# [3] = target: Gal(b1-3)GlcNAc(b1-2)Man(a1-3)[Gal(b1-3)GlcNAc(b1-2)Man(a1-6)]Man(b1-4)GlcNAc(b1-4)[Fuc(a1-6)]GlcNAc
# Summary of the method: as §1
# [4] = target: Gal(b1-3)GlcNAc(b1-2)[Gal(b1-3)GlcNAc(b1-6)]Man(a1-6)[Gal(b1-3)GlcNAc(b1-2)Man(a1-3)]Man(b1-4)GlcNAc(b1-4)GlcNAc
# Summary of the method: as §1
# [5] = target: Gal(b1-3)GlcNAc(b1-3)Gal(b1-3)GlcNAc
# Summary of the method: as §1
# [6] = target: Gal(b1-3)GlcNAc(b1-3)Gal(b1-4)Glc
# Summary of the method: as §1
# [7] = target: Gal(b1-3)GlcNAc(b1-3)Gal(b1-4)GlcNAc
# Summary of the method: as §1
# [8] = target: Gal(b1-3)GlcNAc(b1-3)Gal(b1-4)GlcNAc(b1-6)[Gal(b1-3)GlcNAc(b1-3)]Gal(b1-4)Glc
# Summary of the method: as §1
# [9] = target: Gal(b1-3)GlcNAc(b1-3)Gal(b1-4)[Fuc(a1-3)]GlcNAc(b1-6)[Gal(b1-3)GlcNAc(b1-3)]Gal(b1-4)Glc
# Summary of the method: as §1
# [10] = target: Gal(b1-3)GlcNAc(b1-3)GalNAc
# Summary of the method: as §1
# [11] = target: Gal(b1-3)GlcNAc(b1-6)Gal(b1-4)GlcNAc
# Summary of the method: as §1
# [12] = target: Gal(b1-3)[Fuc(a1-4)]GlcNAc
# Summary of the method: as §1
# [13] = target: Gal(b1-3)[Fuc(a1-4)]GlcNAc(b1-2)Man(a1-3)[Gal(b1-3)[Fuc(a1-4)]GlcNAc(b1-2)Man(a1-6)]Man(b1-4)GlcNAc(b1-4)GlcNAc
# Summary of the method: as §1
# [14] = target: Gal(b1-3)[Fuc(a1-4)]GlcNAc(b1-2)Man(a1-3)[Gal(b1-3)[Fuc(a1-4)]GlcNAc(b1-2)Man(a1-6)]Man(b1-4)GlcNAc(b1-4)[Fuc(a1-6)]GlcNAc
# Summary of the method: as §1
# [15] = target: Gal(b1-3)[Fuc(a1-4)]GlcNAc(b1-3)Gal(b1-3)[Fuc(a1-4)]GlcNAc
# Summary of the method: as §1
# [16] = target: Gal(b1-3)[Fuc(a1-4)]GlcNAc(b1-3)Gal(b1-4)GlcNAc
# Summary of the method: as §1
# [17] = target: Gal(b1-3)[Fuc(a1-4)]GlcNAc(b1-3)Gal(b1-4)[Fuc(a1-3)]GlcNAc
# Summary of the method: as §1
# [18] = target: Gal(b1-3)[GlcNAc(b1-6)]GalNAc
# Summary of the method: as §1
# [19] = target: Gal(b1-3)[Neu5Ac(a2-6)]GalNAc
# Summary of the method: as §1
# [20] = target: Gal(b1-3)[Neu5Ac(a2-6)]GlcNAc(b1-6)Gal(b1-4)Glc
# Summary of the method: as §1
# [21] = target: Gal(b1-3)[Neu5Ac(b2-6)]GalNAc
# Summary of the method: as §1
# Gal(b1-4)Gal = target: Gal(b1-4)Gal
# Summary of the method: as §1
# [22] = target: Gal(b1-4)GalNAc(a1-3)[Fuc(a1-2)]Gal(b1-4)GlcNAc
# Summary of the method: as §1
# [23] = target: Gal(b1-4)GalNAc(b1-3)[Fuc(a1-2)]Gal(b1-4)GlcNAc
# Summary of the method: as §1
# Gal(b1-4)Glc = target: Gal(b1-4)Glc
# Summary of the method: as §1
# Gal(b1-4)Glc6S = target: Gal(b1-4)Glc6S
# Summary of the method: as §1
# Gal(b1-4)GlcNAc = target: Gal(b1-4)GlcNAc
# Summary of the method: as §1
# [24] = target: Gal(b1-4)GlcNAc(a1-6)Gal(b1-4)GlcNAc
# Summary of the method: as §1
# Gal(b1-4)GlcNAc(b1-2)Man = target: Gal(b1-4)GlcNAc(b1-2)Man
# Summary of the method: as §1
# [25] = target: Gal(b1-4)GlcNAc(b1-2)Man(a1-3)Man(b1-4)GlcNAc(b1-4)GlcNAc
# Summary of the method: as §1
# [26] = target: Gal(b1-4)GlcNAc(b1-2)Man(a1-3)[Gal(b1-4)GlcNAc(b1-2)Man(a1-6)]Man(b1-4)GlcNAc(b1-4)GlcNAc
# Summary of the method: as §1
# [27] = target: Gal(b1-4)GlcNAc(b1-2)Man(a1-3)[Gal(b1-4)GlcNAc(b1-2)Man(a1-6)]Man(b1-4)GlcNAc(b1-4)[Fuc(a1-6)]GlcNAc
# Summary of the method: as §1
# [28] = target: Gal(b1-4)GlcNAc(b1-2)Man(a1-3)[Gal(b1-4)GlcNAc(b1-2)][GlcNAc(b1-4)]Man(b1-4)GlcNAc(b1-4)GlcNAc
# Summary of the method: as §1
# [29] = target: Gal(b1-4)GlcNAc(b1-2)Man(a1-3)[GlcNAc(b1-2)Man(a1-6)]Man(b1-4)GlcNAc(b1-4)GlcNAc
# Summary of the method: as §1
# [30] = target: Gal(b1-4)GlcNAc(b1-2)Man(a1-3)[Man(a1-6)]Man(b1-4)GlcNAc(b1-4)GlcNAc
# Summary of the method: as §1
# [31] = target: Gal(b1-4)GlcNAc(b1-2)Man(a1-6)Man(b1-4)GlcNAc(b1-4)GlcNAc
# Summary of the method: as §1
# [32] = target: Gal(b1-4)GlcNAc(b1-2)Man(a1-6)[GlcNAc(b1-2)Man(a1-3)]Man(b1-4)GlcNAc(b1-4)GlcNAc
# Summary of the method: as §1
# [33] = target: Gal(b1-4)GlcNAc(b1-2)Man(a1-6)[Man(a1-3)]Man(b1-4)GlcNAc(b1-4)GlcNAc
# Summary of the method: as §1
# [34] = target: Gal(b1-4)GlcNAc(b1-2)[Gal(b1-4)GlcNAc(b1-4)]Man(a1-3)[Gal(b1-4)GlcNAc(b1-2)Man(a1-6)]Man(b1-4)GlcNAc(b1-4)GlcNAc
# Summary of the method: as §1
# [35] = target: Gal(b1-4)GlcNAc(b1-2)[Gal(b1-4)GlcNAc(b1-4)]Man(a1-3)[Gal(b1-4)GlcNAc(b1-2)[Gal(b1-4)GlcNAc(b1-6)]Man(a1-6)]Man(b1-4)GlcNAc(b1-4)GlcNAc
# Summary of the method: as §1
# [36] = target: Gal(b1-4)GlcNAc(b1-2)[Gal(b1-4)GlcNAc(b1-4)]Man(a1-3)[GlcNAc(b1-4)][Gal(b1-4)GlcNAc(b1-2)Man(a1-6)]Man(b1-4)GlcNAc(b1-4)GlcNAc
# Summary of the method: as §1
# [37] = target: Gal(b1-4)GlcNAc(b1-2)[Gal(b1-4)GlcNAc(b1-4)]Man(a1-3)[GlcNAc(b1-4)][Gal(b1-4)GlcNAc(b1-2)[Gal(b1-4)GlcNAc(b1-6)]Man(a1-6)]Man(b1-4)GlcNAc(b1-4)GlcNAc
# Summary of the method: as §1
# [38] = target: Gal(b1-4)GlcNAc(b1-2)[Gal(b1-4)GlcNAc(b1-6)]Man(a1-6)[Gal(b1-4)GlcNAc(b1-2)Man(a1-3)]Man(b1-4)GlcNAc(b1-4)GlcNAc
# Summary of the method: as §1
# [39] = target: Gal(b1-4)GlcNAc(b1-2)[Gal(b1-4)GlcNAc(b1-6)]Man(a1-6)[GlcNAc(b1-4)][Gal(b1-4)GlcNAc(b1-2)Man(a1-3)]Man(b1-4)GlcNAc(b1-4)GlcNAc
# Summary of the method: as §1
# [40] = target: Gal(b1-4)GlcNAc(b1-3)Gal(b1-3)GlcNAc
# Summary of the method: as §1
binder,measurement,setting,value
B1,glycan array binding signal (z-score),[1],-0.238
same,glycan array binding signal (z-score),[2],-0.176
same,glycan array binding signal (z-score),[3],0.147
same,glycan array binding signal (z-score),[4],-0.092
same,glycan array binding signal (z-score),[5],0.025
same,glycan array binding signal (z-score),[6],-0.253
same,glycan array binding signal (z-score),[7],0.202
same,glycan array binding signal (z-score),[8],0.276
same,glycan array binding signal (z-score),[9],-0.22
same,glycan array binding signal (z-score),[10],-0.014
same,glycan array binding signal (z-score),[11],-0.17
same,glycan array binding signal (z-score),[12],-0.208
same,glycan array binding signal (z-score),[13],0.007
same,glycan array binding signal (z-score),[14],0.256
same,glycan array binding signal (z-score),[15],-0.059
same,glycan array binding signal (z-score),[16],0.054
same,glycan array binding signal (z-score),[17],-0.2
same,glycan array binding signal (z-score),[18],-0.518
same,glycan array binding signal (z-score),[19],0.086
same,glycan array binding signal (z-score),[20],0.277
same,glycan array binding signal (z-score),[21],-0.096
same,glycan array binding signal (z-score),Gal(b1-4)Gal,-0.507
same,glycan array binding signal (z-score),[22],-0.056
same,glycan array binding signal (z-score),[23],-0.133
same,glycan array binding signal (z-score),Gal(b1-4)Glc,-0.201
same,glycan array binding signal (z-score),Gal(b1-4)Glc6S,-0.127
same,glycan array binding signal (z-score),Gal(b1-4)GlcNAc,0.034
same,glycan array binding signal (z-score),[24],-0.081
same,glycan array binding signal (z-score),Gal(b1-4)GlcNAc(b1-2)Man,0.036
same,glycan array binding signal (z-score),[25],-0.103
same,glycan array binding signal (z-score),[26],-0.169
same,glycan array binding signal (z-score),[27],0.16
same,glycan array binding signal (z-score),[28],-0.099
same,glycan array binding signal (z-score),[29],-0.142
same,glycan array binding signal (z-score),[30],-0.196
same,glycan array binding signal (z-score),[31],-0.08
same,glycan array binding signal (z-score),[32],-0.194
same,glycan array binding signal (z-score),[33],0.017
same,glycan array binding signal (z-score),[34],-0.304
same,glycan array binding signal (z-score),[35],-0.332
same,glycan array binding signal (z-score),[36],-0.165
same,glycan array binding signal (z-score),[37],-0.153
same,glycan array binding signal (z-score),[38],0.104
same,glycan array binding signal (z-score),[39],-0.105
same,glycan array binding signal (z-score),[40],-0.333
